According to PubChem BioAssay AID686979 (National Center for Advancing Translational Sciences (NCATS), 2013):
The campaign covered roughly 420,000 compounds. About 50,000 (12%) were called active. Inconclusive means that the source gave no clear call. Such entries were picked first, then a sample of the others. The call rests on the fitted dose curve; in most records, active means well fitted inhibition curve with a large enough effect; inconclusive means small, poorly fitted or top-dose-only effect; inactive means flat fitted curve, though single readings scatter. Potencies of inconclusive entries are left out as doubtful fits.

experiment: qHTS for Inhibitors of human tyrosyl-DNA phosphodiesterase 1 (TDP1): qHTS in cells in presence of CPT; conditions: chicken DT40 Tdp1-/-;hTDP1 cells + 20 nM CPT, ATP luminescence, 48 h; activity change, negative = growth inhibition: at 46.2 µM (top of the series) unless noted; further: nearly all actives have a fitted effect of over 55% in size
Summary of the method: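 Cell growth measured by CellTiter-Glo luminescence after a minimum 48 h, 37 C compound exposure with 20 nM CPT in Tdp1-knockout DT40 cells stably expressing hTDP1, seeded 400/well; qHTS titration format.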
On the % scale 0 is the no-effect control and ±100 the full control effect; potency means the concentration at half of the fitted maximal effect; tags describe the fitted curve by direction and shape.

Question: For `CC(C)NC(=O)c1onc(CSc2nc3ccccc3[nH]2)c1C(=O)NC(C)C`, which Potency is on record?
Answer: inactive

Question: For `CCOC(=O)c1ccc(-n2ccnc2)c(NC(=O)c2ccc(Cl)cc2)c1`, which Potency is on record?
Answer: inactive

Question: Which Potency does the source give for `CC(C)Cn1c(N)c(C(=O)COC(=O)c2cnc(Cl)c(Cl)c2)c(=O)n(C)c1=O` here?
Answer: active: 18.4 µM

Question: With `NC(=S)NN=C1CSSC1` as the compound, how does the Potency read?
Answer: active: 7.31 µM

Question: With `CC(=O)c1c(CC(=O)O)[nH]n(-c2nc3ccccc3s2)c1=O` as the compound, how does the Potency read?
Answer: inconclusive [inhibitor, partial curve]

Question: With `COc1ccc(C)c2sc(N(Cc3cccnc3)C(C)=O)nc12` as the compound, how does the Potency read?
Answer: inconclusive [inhibitor, single point]

Question: With `C#CCCCCCCCCC(=O)NCCCC` as the compound, how does the Potency read?
Answer: inconclusive [inhibitor, single point]

Question: With `CCCN1C(=O)c2[nH]nc(-c3ccccc3O)c2C1c1ccc(OCc2ccccc2)c(OCC)c1` (stereo not given) as the compound, how does the Potency read?
Answer: active: 23.1 µM

Question: With `Cc1noc(C)c1COc1cccc(C(=O)N2CCN(C/C=C/c3ccccc3)CC2)c1` as the compound, how does the Potency read?
Answer: inconclusive [inhibitor, single point]

Question: For `Fc1ccc(-c2nc3nc4ccccc4nc3n2Cc2ccco2)cc1`, which Potency is on record?
Answer: inconclusive [inhibitor, partial curve]

Question: Which Potency does the source give for `CCSC1=C(C#N)C(c2cccc(Br)c2)CC(=O)N1` (stereo not given) here?
Answer: inconclusive [inhibitor, single point]

Question: Which Potency does the source give for `Cc1cc(F)ccc1S(=O)(=O)N1CCCOC1CNC(=O)C(=O)NCCc1ccccc1` (stereo not given) here?
Answer: inconclusive [inhibitor, partial curve, poor fit]

Question: For `O=C(NC1CCCCC1)C(c1ccccn1)N(C(=O)Cc1cccs1)c1ccc(Cl)cc1` (stereo not given), which Potency is on record?
Answer: active: 29.1 µM

Question: With `C[C@H](NC(N)=O)C(=O)OCC(=O)Nc1ccc(OC(F)F)cc1` as the compound, how does the Potency read?
Answer: inactive

Question: For `O=c1[nH]c2ccc(NC(=S)NCCc3ccccc3)cc2[nH]1`, which Potency is on record?
Answer: inactive

Question: Which Potency does the source give for `COC(=O)C(CC(=O)c1ccc(Br)cc1)n1ccnc1` (stereo not given) here?
Answer: active: 1.41 µM

Question: Which Potency does the source give for `CC(C)(C)NCc1cc(Br)ccc1OCc1cccs1` here?
Answer: inconclusive [inhibitor, single point]

Question: Which Potency does the source give for `CN(Cc1ccco1)C(=O)C1CCCN(c2ncnc3c2nc2n3CCCCC2)C1` (stereo not given) here?
Answer: inconclusive [inhibitor, single point]

Question: With `Cc1nc2c(=O)[nH]c(=S)[nH]c2[nH]c1=O` as the compound, how does the Potency read?
Answer: inactive

Question: With `Cc1ccccc1OCC(=O)N/N=C/c1cccc(Oc2ccc([N+](=O)[O-])cc2[N+](=O)[O-])c1` as the compound, how does the Potency read?
Answer: active: 14.6 µM

Question: For `CN(C)c1ccc(C(c2ccc(N(C)C)cc2)c2ccc([N+](=O)[O-])cc2)cc1`, which Potency is on record?
Answer: inconclusive [inhibitor, single point]

Question: With `CCCn1c(SC(C)C(=O)NC2CCCC(C)C2C)n[nH]c1=O` (stereo not given) as the compound, how does the activity change, negative = growth inhibition read?
Answer: inconclusive: -6.24% [inhibitor]

Question: For `CC(=O)Nc1ccc(CN2CCN(CC(C)C)C(CCO)C2)cc1` (stereo not given), which Potency is on record?
Answer: inactive

Question: Which Potency does the source give for `COc1ccc2c3c([nH]c2c1)[C@H]1C[C@H]2[C@H](C[C@@H](O)[C@H](OC)[C@H]2C(=O)O)CN1CC3` here?
Answer: inconclusive [inhibitor, single point]

Question: For `Cc1cc(S(=O)(=O)N2CCN(C(=O)CCC(=O)N3CCOCC3)CC2)ccc1Br`, which Potency is on record?
Answer: inactive

Question: Which Potency does the source give for `CCc1ccc(NC(=O)C2CCC(CNS(=O)(=O)c3ccc4c(c3)CC(C)N4C(C)=O)CC2)cc1` (stereo not given) here?
Answer: active: 20.6 µM

Question: Which Potency does the source give for `COc1ccc(-c2cc(C(=O)N/N=C(\C)c3cccnc3)c3ccccc3n2)cc1` here?
Answer: inconclusive [inhibitor, full curve, poor fit]

Question: Which Potency does the source give for `COc1ccc(COc2cc(-c3cccc(OC)c3)nc3ccc(NC(=O)c4ccc(Cl)cc4)cc23)cc1` here?
Answer: inconclusive [inhibitor, partial curve]

Question: For `CCCN(CCC)c1nc(Cl)nc(NCCN2CCOCC2)n1`, which Potency is on record?
Answer: inconclusive [inhibitor, single point]

Question: For `COc1ccccc1CN1C(=S)SC(C)(C)C1NO` (stereo not given), which Potency is on record?
Answer: inactive

Question: Which Potency does the source give for `O=C(C1CC1)N1CCc2cc(S(=O)(=O)NCC3COc4ccccc4O3)ccc21` (stereo not given) here?
Answer: inconclusive [inhibitor, single point]

Question: For `CC1=C(C(=O)NC2CC(C)(C)Cc3c2cnn3-c2cccc(F)c2)OCCO1` (stereo not given), which Potency is on record?
Answer: inconclusive [inhibitor, single point]

Question: With `COc1ccc(C(C)(O)c2nc(-c3ccccc3)cs2)cc1` (stereo not given) as the compound, how does the Potency read?
Answer: active: 18.4 µM

Question: For `O=C(C1CCN(S(=O)(=O)c2cccc3nsnc23)CC1)N1CCc2ccccc21`, which Potency is on record?
Answer: inconclusive [inhibitor, single point]

Question: Which Potency does the source give for `Cc1cc(NC(=O)CN(C)CC(=O)Nc2ccc(Cl)c(C(F)(F)F)c2)no1` here?
Answer: active: 14.6 µM

Question: Which Potency does the source give for `Cc1ccc(CCNC(=O)C(NS(=O)(=O)c2ccc3c(c2)oc(=O)n3C)C(C)C)cc1` (stereo not given) here?
Answer: inactive

Question: For `Cc1ccc(-n2ccc(=O)c(-c3ccnc(SCc4cccc(Cl)c4)n3)n2)cc1`, which Potency is on record?
Answer: inconclusive [inhibitor, single point]

Question: Which Potency does the source give for `CCc1nc2ccc(C(=O)NCc3ccc4c(c3)OCO4)cn2c1N(C)CCC(C)C` here?
Answer: inconclusive [inhibitor, single point]

Question: For `COc1ccc(CCN(Cc2cccs2)S(=O)(=O)c2ccc(-n3cnnn3)c(OC)c2)cc1OC`, which Potency is on record?
Answer: inconclusive [inhibitor, partial curve]

Question: For `Nc1nc(Sc2ccc([N+](=O)[O-])cc2[N+](=O)[O-])n[nH]1`, which Potency is on record?
Answer: inconclusive [inhibitor, single point]

Question: Which Potency does the source give for `Cc1ccsc1C(=O)N1CCCC(CO)(Cc2ccccc2)C1` (stereo not given) here?
Answer: inconclusive [inhibitor, single point]

Question: With `Cc1ccc2nc(N(CCCN(C)C)C(=O)c3ccc(S(=O)(=O)N4CCc5ccccc5C4)cc3)sc2c1` as the compound, how does the Potency read?
Answer: active: 5.17 µM

Question: Which activity change, negative = growth inhibition does the source give for `CCCc1cc(Nc2c(C)n(C)n(-c3ccccc3)c2=O)n2c(nc3ccccc32)c1C#N` here?
Answer: inconclusive: -30.6% [inhibitor]

Question: Which Potency does the source give for `CC(C)N1CCC1(C)C(=O)Nc1nccc2cccnc12` (stereo not given) here?
Answer: active: 4.11 µM

Question: For `COc1cc2c(cc1OC)C(c1ccc(F)cc1)N(c1cccc(C#N)c1)C(=O)C2` (stereo not given), which Potency is on record?
Answer: active: 14.6 µM
